About 6,400 (1.6%) of roughly 410,000 compounds were called active. The shares of active, inactive and inconclusive entries below differ from those in the screen. The call rests on the fitted dose curve; in most records, active means well fitted inhibition curve with a large enough effect; inconclusive means small, poorly fitted or top-dose-only effect; inactive means no such curve, though single readings can be large or run the other way. Potencies of inconclusive entries are left out as doubtful fits.
target: Glucagon-like peptide 1 receptor (Homo sapiens) (UniProt P43220); test: qHTS of GLP-1 Receptor Inverse Agonists (Inhibition Mode); conditions: HEK293 GLP-1R CRE-luciferase, luminescence, 24 h, GLP-1R form is constitutively active; series mostly up to 38.3 µM; further: nearly all actives have a fitted effect of over 55% in size
UniProt P43220, sequence (P43220 whole entry, looked up): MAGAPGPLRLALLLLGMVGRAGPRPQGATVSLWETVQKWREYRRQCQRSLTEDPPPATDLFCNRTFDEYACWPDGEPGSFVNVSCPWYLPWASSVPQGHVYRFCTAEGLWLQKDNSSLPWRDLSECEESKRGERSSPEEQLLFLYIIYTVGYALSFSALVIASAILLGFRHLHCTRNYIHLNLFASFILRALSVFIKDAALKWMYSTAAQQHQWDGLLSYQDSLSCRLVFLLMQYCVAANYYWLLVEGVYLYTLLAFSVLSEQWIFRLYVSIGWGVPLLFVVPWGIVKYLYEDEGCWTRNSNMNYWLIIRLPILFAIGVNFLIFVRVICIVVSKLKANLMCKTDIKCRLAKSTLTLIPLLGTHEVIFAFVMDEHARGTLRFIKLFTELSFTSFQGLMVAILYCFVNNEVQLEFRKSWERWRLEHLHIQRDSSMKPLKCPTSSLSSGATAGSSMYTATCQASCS
In short: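 Assay principle: reduced luminescence from a cAMP-responsive reporter in HEK293 cells co-expressing a constitutively active GLP-1R. Conditions: 24 hr compound incubation, 37 deg C, 5% CO2.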
Potency means the concentration at half of the fitted maximal effect; tags describe the fitted curve by direction and shape.

SMILES	Potency
NC(=O)CC(NC(=O)c1ccccc1)c1ccc(NCCc2ccc(F)cc2)c([N+](=O)[O-])c1 (centres undefined)	inconclusive [inhibitor, single point]
Cc1ccc2nc(SCc3cccc([N+](=O)[O-])c3)nc(C)c2c1	inconclusive [inhibitor, partial curve, poor fit]
CCCCN1CC(COCc2ccccc2)Oc2cccc(Oc3ccccc3)c2S1(=O)=O (centres undefined)	inconclusive [inhibitor, partial curve, poor fit]
CCc1nnc(NC(=O)CSc2nccn2-c2ccccc2)s1	inactive
O=C(Cn1c(=O)nc(-c2ccccc2)c2ccccc21)NCCCc1ccccc1	inactive
CCCC[C@@H](CNC)NC[C@H](NCCCCC1CCCCC1)C(C)C	inconclusive [inhibitor, full curve, poor fit]
Cc1cccc(NC(=O)N2CCC(C(=O)c3ccc(F)cc3)CC2)c1	inconclusive [inhibitor, single point]
COc1ccc(-n2c(COc3ccccc3)nnc2SCc2ccc(C#N)cc2)cc1	inconclusive [inhibitor, single point]
O=C(CCC1CCCC1)Nc1cc(Cl)ccc1N1CCOCC1	inconclusive [inhibitor, partial curve, poor fit]
Nc1c(C(=O)Nc2ccc(Br)cc2)sc2nc(-c3ccco3)ccc12	inconclusive [inhibitor, single point]
CC(=O)N1CCc2cc(S(=O)(=O)CCC(=O)NCCc3ccc(Cl)cc3)ccc21	inconclusive [inhibitor, partial curve]
COc1ccc(C2Nc3ccccc3C(=O)N2C2CCCCC2)cc1 (centres undefined)	inconclusive [inhibitor, partial curve]
COCC(=O)Nc1ccc(Nc2ccccc2)cc1	inactive
CSc1cccc(NC(=O)C2CCN(S(=O)(=O)c3ccc4c(c3)NC(=O)CO4)CC2)c1	inconclusive [inhibitor, single point]
O=C(NC1CC(=O)N(c2ccc(Cl)cc2)C1)c1ccc(S(=O)(=O)N2CCCC2)cc1 (centres undefined)	inactive
CNC(=O)c1cc(C)c(-c2ccccc2)s1	inactive
Cc1cc(C(=O)Nc2nc3ccc(S(C)(=O)=O)cc3s2)c(C)o1	inactive
Cc1cc(OCC(=O)Nc2ccc(OCc3ccccc3)cc2)nc(C(C)C)n1	inconclusive [inhibitor, partial curve, poor fit]
Cc1oc2ncn(CC(C)C)c(=O)c2c1C(=O)NCCCN(Cc1ccccc1)C(C)C	inconclusive [inhibitor, partial curve, poor fit]
CCOc1ccc(NC(=O)CSc2nnc(-c3ccc(C)cc3)c(-c3ccc(C)cc3)n2)cc1	inactive

SMILES	Potency
Cc1ccccc1NC(=O)C(c1ccccc1)C1CCCC1 (centres undefined)	inconclusive [inhibitor, partial curve, poor fit]
CCCc1cc(=O)oc2cc(OCC(=O)NCCCN3CCOCC3)c(Cl)cc12	inconclusive [inhibitor, partial curve]
COCC1CCN(C(=O)CCc2nnc(C3(c4ccc(Cl)cc4)CCC3)o2)CC1	inconclusive [inhibitor, partial curve, poor fit]
CCOC(=O)Cn1c(=O)oc2cc(S(=O)(=O)Nc3c(C)cc(C)cc3C)ccc21	inconclusive [inhibitor, partial curve, poor fit]
COc1ccc(C(CNC(=O)c2ccc(OCc3ccccc3)cc2)N2CCOCC2)cc1 (centres undefined)	inconclusive [inhibitor, single point]
COc1ccc(CN(CC(O)COCc2ccccc2)S(=O)(=O)c2ccccc2Br)cc1OC (centres undefined)	inconclusive [inhibitor, single point]
CN1CCN(C(=O)C23CC4CC(C2)CC(c2ccccc2)(C4)C3)CC1	inconclusive [inhibitor, partial curve, poor fit]
CC1CCN(CCNC(=O)c2ccc(Cn3c(SCc4ccccc4)nc4cccnc43)cc2)CC1	inconclusive [inhibitor, single point]
Cc1ccc(NC(=O)COC(=O)c2cc(Cl)ccc2Cl)c(Br)c1	inactive
CNC(=O)c1sc(N2N=C3/C(=C/c4ccccc4)CCCC3C2c2ccccc2)nc1C (centres undefined)	inactive
CCOC(=O)c1sc2nc(C)nc(NCc3ccc(Cl)cc3)c2c1C	inconclusive [inhibitor, single point]
CC(NC(=O)CN1CCc2ccccc21)c1ccccc1 (centres undefined)	inconclusive [inhibitor, single point]
CC(=O)N(c1cccc(C)c1)C1SC(=O)N(c2ccccc2)C1=O (centres undefined)	inactive
COc1ccc(C(=O)Nc2cc([N+](=O)[O-])ccc2N2CCCC2)cc1	inconclusive [inhibitor, full curve, poor fit]
CCc1nc2ccc(C(=O)NCc3ccccc3OC)cn2c1N(C)Cc1ccc(OC)cc1	inconclusive [inhibitor, single point]
COc1ccc(CNC(=O)C[C@H]2C[C@H](C(=O)N(C(C)C)C(C)C)[C@@]3(C)c4[nH]c5ccc(Cl)cc5c4CCN3C2=O)cc1OC	inconclusive [inhibitor, single point]
Cc1ccc(-n2c(C)cc(/C([O-])=C(/C(=S)Nc3ccc(F)c(Cl)c3)[n+]3ccccc3)c2C)cc1	inconclusive [inhibitor, partial curve, poor fit]
C[C@@H]1CCCCO[C@H](CN(C)Cc2ccc(Cl)c(Cl)c2)[C@@H](C)CN([C@H](C)CO)C(=O)c2cc(N(C)C)ccc2O1	inconclusive [inhibitor, single point]
Cc1ccc(-c2noc(CN3CCN(C(c4ccccc4)c4ccccc4)CC3)n2)cc1	inconclusive [inhibitor, partial curve, poor fit]
